This is one part of the list. The full chains were built here from the parent and the listed change. Values near 0.05 are background.
B1: TEV protease; numbered along this chain (parent)
chain: MGESLFKGPRDYNPISSSICHLTNESDGHTTSLYGIGFGPFIITNKHLFRRNNGTLVVQSLHGVFKVKDTTTLQQHLVDGRDMIIIRMPKDFPPFPQKLKFREPQREERICLVTTNFQTKSMSSMVSDTSCTFPSGDGIFWKHWIQTKDGQCGSPLVSTRDGFIVGIHSASNFTNTNNYFTSVPKNFMELLTNQEAQQWVSGWRLNADSVLWGGHKVFMVKPEEPFQPVKEATQL

Variants of: B1
Assay: raw area under fraction-flipped curve 0-4 h after induction (AUC4h, not background-subtracted), DNA-recorder readout of cleavage of the substrate (dimensionless); higher = more cleavage of the substrate by the protease variant
Conditions: temperature: 34 °C; time window: 0-4 h after rhamnose induction
Experimental: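 In vivo DNA recorder in E. coli TOP10(DE3) ΔrhaA at 34 °C. Each TEVp single-site mutant (parent TEVp 0) is paired with a single-site variant of the 7-mer TEVs (canonical ENLYFQ|S). The substrate sits between flexible linkers in a Bxb1-sfGFP-TEVs-SsrA fusion, so cleavage stabilises Bxb1 and speeds flipping of a recombination array, read by NGS. The value is the raw area under the fraction-flipped curve over 0-4 h after rhamnose induction (AUC4h), with ≥20 reads per time point. It is not background-subtracted; inactive controls average about 0.047.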
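Note: Bxb1 expression induced with 0.2% (w/v) L-rhamnose at OD600 near 0.5, cultures sampled hourly, flipped fraction per protease–substrate barcode pair counted by paired-end Illumina sequencing.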

Variant	area with substrate EALYFQS	area with substrate EDLYFQS	area with substrate EELYFQS	area with substrate EFLYFQS	area with substrate EKLYFQS	area with substrate ELLYFQS	area with substrate EQLYFQS	area with substrate ERLYFQS	area with substrate ETLYFQS	area with substrate EVLYFQS	area with substrate EWLYFQS	area with substrate ECLYFQS	area with substrate EGLYFQS	area with substrate EILYFQS	area with substrate EMLYFQS	area with substrate EPLYFQS	area with substrate ESLYFQS	area with substrate EYLYFQS	area with substrate EHLYFQS
MGESLFKGPRDYNPISSSICHLTNESDGHTTSLYGIGFGPFIITNKHLFRRNNGTLVVQSLHGVFKVKDTTTLQQHLVDGRDMIIIRMPKDFPPFPQKLKFREPQREERICLVTTNFQTKSMSSMVSDTSCTFPSGDGIFWKHWIQTKDGQCGSPLVSTRDGFIVGIHSASNFTNTNNYFTSVPKNFMELVTNQEAQQWVSGWRLNADSVLWGGHKVFMVKPEEPFQPVKEATQL [L191V]	0.166	0.092	0.107	0.0739	0.0845	0.0922	0.13	0.0965	0.0835	0.0937	0.0885								
MGESLFKGPRDYNPISSSICHLTNESDGHTTSLYGIGFGPFIITNKHLFRRNNGTLVVQSLHGVFKVKDTTTLQQHLVDGRDMIIIRMPKDFPPFPQKLKFREPQREERICLVTTNFQTKSMSSMVSDTSCTFPSGDGIFWKHWIQTKDGQCGSPLVSTRDGFIVGIHSASNFTNTNNYFTSVPKNFMELLTWQEAQQWVSGWRLNADSVLWGGHKVFMVKPEEPFQPVKEATQL [N193W]	0.0692				0.061	0.0803		0.0885		0.063		0.0702	0.0613						
MGESLFKGPRDYNPISSSICHLTNESDGHTTSLYGIGFGPFIITNKHLFRRNNGTLVVQSLHGVFKVKDTTTLQQHLVDGRDMIIIRMPKDFPPFPQKLKFREPQREERICLVTTNFQTKSMSSMVSDTSCTFPSGDGIFWKHWIQTKDGQCGSPLVSTRDGFIVGIHSASNFTNTNNYFTSVPKNFMELLTNKEAQQWVSGWRLNADSVLWGGHKVFMVKPEEPFQPVKEATQL [Q194K]	0.0948	0.116	0.128		0.115	0.0823	0.13	0.0595	0.176	0.0929	0.0995	0.101		0.0947	0.111	0.0788	0.16	0.169	
MGESLFKGPRDYNPISSSICHLTNESDGHTTSLYGIGFGPFIITNKHLFRRNNGTLVVQSLHGVFKVKDTTTLQQHLVDGRDMIIIRMPKDFPPFPQKLKFREPQREERICLVTTNFQTKSMSSMVSDTSCTFPSGDGIFWKHWIQTKDGQCGSPLVSTRDGFIVGIHSASNFTNTNNYFTSVPKNFMELLTNMEAQQWVSGWRLNADSVLWGGHKVFMVKPEEPFQPVKEATQL [Q194M]	0.111			0.104	0.105	0.102	0.108	0.11		0.0932		0.0814		0.0916			0.0921	0.0957	
MGESLFKGPRDYNPISSSICHLTNESDGHTTSLYGIGFGPFIITNKHLFRRNNGTLVVQSLHGVFKVKDTTTLQQHLVDGRDMIIIRMPKDFPPFPQKLKFREPQREERICLVTTNFQTKSMSSMVSDTSCTFPSGDGIFWKHWIQTKDGQCGSPLVSTRDGFIVGIHSASNFTNTNNYFTSVPKNFMELLTNVEAQQWVSGWRLNADSVLWGGHKVFMVKPEEPFQPVKEATQL [Q194V]	0.122				0.172		0.111				0.112	0.174		0.121			0.0974		
MGESLFKGPRDYNPISSSICHLTNESDGHTTSLYGIGFGPFIITNKHLFRRNNGTLVVQSLHGVFKVKDTTTLQQHLVDGRDMIIIRMPKDFPPFPQKLKFREPQREERICLVTTNFQTKSMSSMVSDTSCTFPSGDGIFWKHWIQTKDGQCGSPLVSTRDGFIVGIHSASNFTNTNNYFTSVPKNFMELLTNQETQQWVSGWRLNADSVLWGGHKVFMVKPEEPFQPVKEATQL [A196T]	0.0801	0.12		0.0852			0.108	0.047			0.0889	0.0708		0.0697	0.13		0.0506	0.0038	0.103
MGESLFKGPRDYNPISSSICHLTNESDGHTTSLYGIGFGPFIITNKHLFRRNNGTLVVQSLHGVFKVKDTTTLQQHLVDGRDMIIIRMPKDFPPFPQKLKFREPQREERICLVTTNFQTKSMSSMVSDTSCTFPSGDGIFWKHWIQTKDGQCGSPLVSTRDGFIVGIHSASNFTNTNNYFTSVPKNFMELLTNQEYQQWVSGWRLNADSVLWGGHKVFMVKPEEPFQPVKEATQL [A196Y]	0.144	0.0657	0.112		0.161	0.092	0.123	0.0916		0.0976				0.0834	0.118		0.101		0.126
MGESLFKGPRDYNPISSSICHLTNESDGHTTSLYGIGFGPFIITNKHLFRRNNGTLVVQSLHGVFKVKDTTTLQQHLVDGRDMIIIRMPKDFPPFPQKLKFREPQREERICLVTTNFQTKSMSSMVSDTSCTFPSGDGIFWKHWIQTKDGQCGSPLVSTRDGFIVGIHSASNFTNTNNYFTSVPKNFMELLTNQEAPQWVSGWRLNADSVLWGGHKVFMVKPEEPFQPVKEATQL [Q197P]	0.119	0.0499			0.119	0.0757			0.137	0.0943	0.106	0.081		0.0591		0.11		0.0872	
MGESLFKGPRDYNPISSSICHLTNESDGHTTSLYGIGFGPFIITNKHLFRRNNGTLVVQSLHGVFKVKDTTTLQQHLVDGRDMIIIRMPKDFPPFPQKLKFREPQREERICLVTTNFQTKSMSSMVSDTSCTFPSGDGIFWKHWIQTKDGQCGSPLVSTRDGFIVGIHSASNFTNTNNYFTSVPKNFMELLTNQEASQWVSGWRLNADSVLWGGHKVFMVKPEEPFQPVKEATQL [Q197S]	0.089		0.132				0.117	0.101	0.0803	0.0825		0.082	0.0888		0.072			0.101	
MGESLFKGPRDYNPISSSICHLTNESDGHTTSLYGIGFGPFIITNKHLFRRNNGTLVVQSLHGVFKVKDTTTLQQHLVDGRDMIIIRMPKDFPPFPQKLKFREPQREERICLVTTNFQTKSMSSMVSDTSCTFPSGDGIFWKHWIQTKDGQCGSPLVSTRDGFIVGIHSASNFTNTNNYFTSVPKNFMELLTNQEAQQMVSGWRLNADSVLWGGHKVFMVKPEEPFQPVKEATQL [W199M]	0.0796	0.0948	0.072	0.0795	0.0675			0.0658	0.0824	0.0733	0.0588	0.0716		0.0523			0.0584		0.0735

Source: the supplement of paper PMC12217912
